Consider 54 sequences from PMC7819943, “Rice protein-binding microarrays: a tool to detect cis-acting elements near promoter regions in rice”.

Some of the results follow.

This assay addresses T1, OsWOX13 (Oryza sativa, UniProt Q5QMM3 1-267).
T1 sequence: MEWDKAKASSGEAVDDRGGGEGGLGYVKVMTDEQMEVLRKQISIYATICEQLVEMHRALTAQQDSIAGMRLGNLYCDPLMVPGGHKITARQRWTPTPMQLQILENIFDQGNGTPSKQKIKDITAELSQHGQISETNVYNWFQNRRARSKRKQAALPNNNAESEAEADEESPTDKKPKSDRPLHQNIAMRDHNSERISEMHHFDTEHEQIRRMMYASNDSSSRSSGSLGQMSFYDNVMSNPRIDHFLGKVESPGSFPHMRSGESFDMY
The assay can be described thus: protein-binding microarray (RPBM); PBS, 2% BSA, 51.3 ng/ul salmon testes DNA, 50 uM zinc acetate, 200 nM TF, 25 C, 1 h; high values mean tight binding. To be noted: protein: recombinant; tags: N-terminal polyhistidine and DsRed monomer fusion (pET32a); label: CyDye5-dUTP incorporated in the synthesized complementary strand; 3' TTTTT single-stranded linker to array surface; dsDNA, one strand shown. In a few lines: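 The binding signal is fluorescence intensity per feature, in arbitrary units, read on an Axon 4000B scanner. Polyhistidine- and DsRed-tagged transcription factors (N-terminal fusions) from E. coli BL21-CodonPlus were purified on Ni–NTA and applied at 200 nM for 1 h at 25 °C to a double-stranded, BSA-blocked custom Agilent array in buffer with 50 µM zinc acetate.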
With “AGTTCTATTTTAATTGACGTTTTGGATAATGACAAATCTTCGGAGTCACCTAGTGCAG”, the binding signal was 6950 fluorescence intensity (a.u.).

Consider “TGACCCAAGCAATTAGCAGCTAATAGCTGATATGTATAGTCGGAGTCACCTAGTGCAG”, for which the binding signal is 3900 fluorescence intensity (a.u.). In the case of “GAAAATATTGATTATGATGATAATCTTATCAAACACCAAACGGAGTCACCTAGTGCAG” it was 35400 fluorescence intensity (a.u.); in that of “AAAATTAACATTCATAGATGAGAAATGGCCATAGGCCTCACGGAGTCACCTAGTGCAG”, 4830 fluorescence intensity (a.u.). For “CCAAATCCAATAAATTTGCAATGCATTCTTCTTGCAGTTCCGGAGTCACCTAGTGCAG”, the binding signal is 3740 fluorescence intensity (a.u.). The value for “AACAAATCATGATCCTTGAGTAGCCACATTATTTTGCTGACGGAGTCACCTAGTGCAG” was 4940 fluorescence intensity (a.u.). In the case of “GCCAATAAAATAATTGCTTACTATACTATTAATATATGGTCGGAGTCACCTAGTGCAG” it was 3780 fluorescence intensity (a.u.); in that of “ATAATTAATTCCCTCCTAAACCCTAGCATTAATTTGACACCGGAGTCACCTAGTGCAG”, 18600 fluorescence intensity (a.u.).

As to “CAGATTTTGATAGGTTTGAACTATCTACACCAGCGGAACGCGGAGTCACCTAGTGCAG”, the binding signal is 8340 fluorescence intensity (a.u.). The value for “CCCTGTGATATGTCTATTATATAAGATATCCTTTTAAAAGCGGAGTCACCTAGTGCAG” was 3670 fluorescence intensity (a.u.); that for “GTTTAATTCTGTCTGTATACTATACCATATCTTACCAGACCGGAGTCACCTAGTGCAG” was 5010 fluorescence intensity (a.u.). The value for “ATCGAATTAACATGTAAACGTCATGTCAATACTACATAGGCGGAGTCACCTAGTGCAG” was 6900 fluorescence intensity (a.u.); that for “CAAAATTTGACAATACGAAAGTTCAACATTCCTAATACTACGGAGTCACCTAGTGCAG” was 4730 fluorescence intensity (a.u.). Turning to “GCAAATATGTAGAATTAATTATTCTTGATCTGTAGATGAACGGAGTCACCTAGTGCAG”, the binding signal was 6730 fluorescence intensity (a.u.). In the case of “AAATGAGTGACTCAATAATCTAGAAAATTTGTATCATGAGCGGAGTCACCTAGTGCAG” it was 3860 fluorescence intensity (a.u.); in that of “ATTTTATTGTTGCGGTTGCCAATCAACAACGACGTCATTTCGGAGTCACCTAGTGCAG”, 3880 fluorescence intensity (a.u.).

Consider “ATTGATGTGAGTTCAATCATGTTCCTGATCCATGGGGTTTCGGAGTCACCTAGTGCAG”, for which the binding signal was 24900 fluorescence intensity (a.u.). The value for “TGCTGGATTGTATTGATGTGTGTGCTTACCTAGTATAAATCGGAGTCACCTAGTGCAG” was 3580 fluorescence intensity (a.u.); that for “TTTATCATGATTTCTTATATAGTTACCAAAATTTAGCAGCCGGAGTCACCTAGTGCAG” was 5990 fluorescence intensity (a.u.). In the case of “ACTCCTGATTACCGGACCAGTAATTCAGTACGGATTCTACCGGAGTCACCTAGTGCAG” it was 12800 fluorescence intensity (a.u.). Turning to “CCCTAACTGGGACAAAATGATTATTTTAGTCTAACATACACGGAGTCACCTAGTGCAG”, the binding signal is 21300 fluorescence intensity (a.u.). In the case of “GAATGTGATTTAATCAAGAGCAAGGGATGAGGGAGGCCAGCGGAGTCACCTAGTGCAG” it was 19300 fluorescence intensity (a.u.); in that of “AATAAAATAATTTGACGAGAAGCGTACGTACATTGCAAAGCGGAGTCACCTAGTGCAG”, 11700 fluorescence intensity (a.u.); in that of “GTTATTCCAACACCATCGGGCATCACTTGCCCGCAAAATTCGGAGTCACCTAGTGCAG”, 4990 fluorescence intensity (a.u.).

Consider “AATACTTAATTAATCACGTACTAATGGATCGCTCCGTTTTCGGAGTCACCTAGTGCAG”, for which the binding signal was 28800 fluorescence intensity (a.u.). The value for “CGAAAATATAAATGTTGACTGAATGAGCTGTTGAACCAAACGGAGTCACCTAGTGCAG” was 4440 fluorescence intensity (a.u.). The value for “ATGAGCTATTAGATTGGCTATAGATGAATTGGATCTAGTACGGAGTCACCTAGTGCAG” was 16300 fluorescence intensity (a.u.); that for “AACCAAATTAATCTGAAATTCCAAATTAATACTCCCTCCGCGGAGTCACCTAGTGCAG” was 19500 fluorescence intensity (a.u.). In the case of “GATTAACTGGGAACAGATAAGTATCTCTTAGTAAGAGGGTCGGAGTCACCTAGTGCAG” it was 16600 fluorescence intensity (a.u.); in that of “GTACTTATGATTATGCTAATCACAAGTGGGCCCTTAATTACGGAGTCACCTAGTGCAG”, 21400 fluorescence intensity (a.u.); in that of “GATTGATTAATATCTCATGTCATATCATTTTGTCAATTTTCGGAGTCACCTAGTGCAG”, 20800 fluorescence intensity (a.u.).

As for “TATATATATATATATATATATATATATATCCGTTCAAAATCGGAGTCACCTAGTGCAG”, the binding signal was 8370 fluorescence intensity (a.u.). In the case of “TTGATTGCTTTACTCATGGTCAGTATGATGCTCATACCTCCGGAGTCACCTAGTGCAG” it was 31000 fluorescence intensity (a.u.).

Regarding “TAAGTAGATCGAAAATGTTTCAATCATTTAAATCAGGCGTCGGAGTCACCTAGTGCAG”, the binding signal is 4180 fluorescence intensity (a.u.). Turning to “TTGTTAAAATTGATTTAGGCATCTATCGTCACAGTGAACACGGAGTCACCTAGTGCAG”, the binding signal is 18000 fluorescence intensity (a.u.). On to “GCTGATTTGTTTTACACTCCATTAGATTTGTTAAGCTATTCGGAGTCACCTAGTGCAG”, for which the binding signal is 29200 fluorescence intensity (a.u.). Take “ACGTACCAAATTATGTTGCGTCTAATATACCAAACTGGAGCGGAGTCACCTAGTGCAG”: the binding signal is 3710 fluorescence intensity (a.u.). In the case of “TCGTAACATACATTGACAATCAAGAGGAGCCATGGCATTGCGGAGTCACCTAGTGCAG” it was 14000 fluorescence intensity (a.u.); in that of “TTACATTCAATGGAATTAATTTAGTGCAGTAGATATTGATCGGAGTCACCTAGTGCAG”, 4770 fluorescence intensity (a.u.).

As for “TATATATATATATATATTGCGAGGATTGTTATAATAAAAGCGGAGTCACCTAGTGCAG”, the binding signal was 9860 fluorescence intensity (a.u.). As to “CTGATATTACCAAATTTGGTCGTTAACAGTTGTCAATGTCCGGAGTCACCTAGTGCAG”, the binding signal is 5750 fluorescence intensity (a.u.). In the case of “AGCTTATGTGATTTATAAACCGGTGACTTTAAAACTGTTTCGGAGTCACCTAGTGCAG” it was 6010 fluorescence intensity (a.u.); in that of “TTTAATTTATGGAGAATATGGTTTGTGCTCATGGTTGGGACGGAGTCACCTAGTGCAG”, 19400 fluorescence intensity (a.u.); in that of “AGTCAATTTAAACATGGCCGGCTGTAAAATCAATTTAGTCCGGAGTCACCTAGTGCAG”, 11400 fluorescence intensity (a.u.). The value for “AGATTAAACTGGAATGGAGGGTGTAACAAGTGATCTCAGCCGGAGTCACCTAGTGCAG” was 5620 fluorescence intensity (a.u.). In the case of “TAATTCCATTAACTTTCTTTCAATCTTAAAACTCCTGACACGGAGTCACCTAGTGCAG” it was 3290 fluorescence intensity (a.u.); in that of “TTAAATAGACACATTCTAATACTTCAAAATAATAACAAGCCGGAGTCACCTAGTGCAG”, 15300 fluorescence intensity (a.u.).

For “AAACTAATTGCACAGTTAAGAAGAAAATCACGAGACGAATCGGAGTCACCTAGTGCAG”, the binding signal is 16500 fluorescence intensity (a.u.). In the case of “GGGGTAAATTCAGACTTAATTTTAAGTAGATTTTAGAATACGGAGTCACCTAGTGCAG” it was 13000 fluorescence intensity (a.u.); in that of “TAATTATTGACTAATATATTAATTAATATAATGTAATTTACGGAGTCACCTAGTGCAG”, 22700 fluorescence intensity (a.u.).

As to “GTTAAACTAATTTGAATTTGTTAGTACAGTTTGCATTTCACGGAGTCACCTAGTGCAG”, the binding signal is 25500 fluorescence intensity (a.u.). For “CCTTATTAATGAGGTGTGGTTTATGGATATGATAGAGAGACGGAGTCACCTAGTGCAG”, the binding signal is 3170 fluorescence intensity (a.u.). In the case of “ATTAATTGTTGTACATTATAAATTTTCCCTTGCATGTTTCCGGAGTCACCTAGTGCAG” it was 24800 fluorescence intensity (a.u.); in that of “CGAATTTCAGTTATTTCCTAATTGTATTTCTATATGGACTCGGAGTCACCTAGTGCAG”, 6210 fluorescence intensity (a.u.).
